Measurements reported in PubChem BioAssay (NCATS).
Several values for one entry are separate records, joined by “and”; a condition that tells them apart may be missing. Equal values may be shown once. The shares of active, inactive and inconclusive entries below differ from those in the screen. Potencies beside an inconclusive call are fits to weak or partial responses and may not hold up. Activity calls are given as the source filed them. Unless noted, calls follow the shape of the dose curve; as a rule, active = well fitted inhibition curve with a large enough effect; inconclusive = small, poorly fitted or top-dose-only effect; inactive = flat fitted curve, though single readings scatter. Non-standard residues stand in square brackets, D forms with d. Residues, ends and D or L forms follow the SMILES beside them. *: point of attachment. Dolaproine = CO[C@@H]([C@@H]1CCCN1)[C@@H](C)C(=O)O; Dil = CC[C@H](C)[C@H](NC)[C@@H](CC(=O)O)OC; Doe = c1ccc(C[C@H](N*)c2nccs2)cc1; Aib = CC(C)(N)C(=O)O

Legend:
CRL-7250 = normal cell line; assay: Cytotoxic Profiling of Annotated Libraries Using Quantitative High-Throughput Screening (AID 1296008); conditions: Five cell lines viability, CellTiter-Glo ATP luminescence, 48-72 h; max response: stronger effect = lower value; also: nearly all actives have a fitted effect of over 60% in size; as to max response: % is scaled to controls: 0 for no effect and ±100 for the full control effect
Summary of the method: (§1)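 Compounds were pin-transferred onto cells and incubated 48 or 72 hr at 37 degree Celsius, 95% humidity. CellTiter-Glo was added, plates sat 10 min at room temperature, then ATP-coupled luminescence was imaged as the viability read-out.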

HEK293 = assay: as above; conditions: Five cell lines viability, CellTiter-Glo ATP luminescence, 48-72 h; max response: stronger effect = lower value
Summary of the method: as §1

[1] = qHTS for identification of novel therapeutic agents for treatment of microphthalmiaassociated transcription factor (MiT) renal cell carcinoma (RCC) (AID 1963991; calls by dose curve); conditions: TFE3-RCC UOK109 viability, CellTiter-Glo, 48 h
Summary of the method: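 Three TFE3-fusion RCC cell lines (UOK109, UOK124, UOK145), 500 cells/well, were exposed to the 1912-compound MIPE 4.0 library for 48 hours at 37 C. Viability was read by CellTiter-Glo luminescence, normalised to DMSO (100%) and empty wells (0%), with 11-concentration curve fits.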
Potency is read from the fitted curve at half-maximal effect; tags tell the direction and shape of the fitted curve.

In the case of `Clc1ccc(CSC(Cn2ccnc2)c2ccc(Cl)cc2Cl)cc1` (configuration not stated), the Potency (CRL-7250) is reported as inconclusive: 23.7 µM [inhibitor, single point] and the Potency (HEK293) is reported as inconclusive: 0.266 µM [inhibitor, full curve, poor fit].

With `CC1CCCCCC(=O)c2c(O)cc(O)cc2CC(=O)O1` (configuration not stated) the Potency (CRL-7250) was inconclusive: 23.1 µM [inhibitor, single point] and the Potency (HEK293) was inconclusive: 20.6 µM [inhibitor, single point].

With `COC[C@H]1OC(=O)c2coc3c2[C@@]1(C)C1=C(C3=O)C2CCC(=O)[C@@]2(C)C[C@H]1OC(C)=O` (some centres not stated) the Potency [1] was inconclusive: 0.372 µM [falling, partial curve, poor fit], the Potency (CRL-7250) was inconclusive: 23.1 µM [inhibitor, single point] and the max response (CRL-7250) was inactive: -6.6%.

For `O=C(CCCN1CCC(n2c(=O)[nH]c3ccccc32)CC1)c1ccc(F)cc1`, the max response (CRL-7250) was inactive: -0.196% and the Potency (HEK293) was inconclusive: 29.9 µM [inhibitor, single point].

In the case of `CC(=O)OC[C@]12C[C@H](OC(=O)CC(C)C)C(C)=C[C@H]1O[C@@H]1[C@H](O)C[C@@]2(C)[C@]12CO2`, the Potency (CRL-7250) is reported as active: 3.17 µM.

With `O=P1(NCCCl)OCCCN1CCCl` (configuration not stated) the Potency [1] was inconclusive: 1.87 µM [falling, partial curve, poor fit], the Potency (CRL-7250) was inconclusive: 33.5 µM [inhibitor, single point] and the max response (CRL-7250) was inactive: -12.2%. The Potency (HEK293) was inconclusive: 18.7 µM [inhibitor, partial curve, poor fit].

In the case of `Oc1ccc2c3c1O[C@H]1[C@H](N(CCCl)CCCl)CC[C@@]4(O)[C@@H](C2)N(CC2CC2)CC[C@]314`, the max response (CRL-7250) is reported as inactive: -3.35% and the max response (HEK293) is reported as inactive: 0.595%.

With `COC[C@@H](NC(C)=O)C(=O)NCc1ccccc1` the Potency (CRL-7250) was inconclusive: 33.2 µM [inhibitor, single point] and the max response (HEK293) was inactive: -4.08%.

In the case of `Oc1cc(Cl)ccc1Oc1ccc(Cl)cc1Cl`, the Potency (CRL-7250) is reported as active: 39.4 µM and inconclusive: 23.7 µM [inhibitor, single point].

With `Oc1cccc2cccnc12` the Potency (CRL-7250) was inconclusive: 21.7 µM [inhibitor, partial curve, poor fit].

With `Cc1ncsc1CCCl` the max response (CRL-7250) was inactive: 3.36% and the max response (HEK293) was inactive: -8.24%.

With `C#CCN(C)[C@H](C)Cc1ccccc1` the max response (CRL-7250) was inactive: -4.73% and the outcome (CRL-7250) was “inactive”.

With `CCCCCn1cc(C(=O)C2C(C)(C)C2(C)C)c2ccccc21` the Potency (CRL-7250) was inconclusive: 3.26 µM [inhibitor, full curve] and the Potency (HEK293) was inconclusive: 23.1 µM [inhibitor, single point].

In the case of `Clc1ccccc1N1CCNCC1`, the Potency (CRL-7250) is reported as inconclusive: 33.5 µM [inhibitor, single point] and the outcome (HEK293) is reported as “inactive”.

In the case of `O=C1NCN(c2ccccc2)C12CCN(CCCOc1ccc(F)cc1)CC2`, the Potency (CRL-7250) is reported as inconclusive: 33.5 µM [inhibitor, partial curve, poor fit] and the Potency (HEK293) is reported as inconclusive: 26.6 µM [inhibitor, single point].

With `Cc1cccc(C)c1NC(=O)CN1CCCC1=O` the max response (CRL-7250) was inactive: 0.285% and inactive: 2.07%.

For `C[C@]12CC[C@H](O)C[C@@]1(O)CC[C@@H]1[C@@H]2CC[C@]2(C)[C@@H](c3ccc(=O)oc3)CC[C@]12O`, the Potency (CRL-7250) was active: 0.0052 µM.

In the case of `CCOC(C(=O)OCCN(C)C)(c1ccccc1)c1ccccc1`, the Potency (CRL-7250) is reported as inconclusive: 29.9 µM [inhibitor, single point].

With `CC[C@H](C)[C@@H]([C@@H](CC(=O)N1CCC[C@H]1[C@H](OC)[C@@H](C)C(=O)N[C@@H](Cc1ccccc1)c1nccs1)OC)N(C)C(=O)[C@@H](NC(=O)C(C)(C)N)C(C)C` (H-[Aib]V[Dil][Dolaproine]-Doe) the Potency (CRL-7250) was inconclusive: 0.366 µM [inhibitor, full curve, poor fit].

For `CC(=O)OC1CC(O)C(C)(C)C2CC(OC(C)=O)C3(C)C(CCC4(C)C(c5ccoc5)C(=O)C5OC543)C12C` (configuration not stated), the max response (CRL-7250) was inactive: -0.447% and the max response (HEK293) was inactive: -14.4%.

For `C=CCN1CC[C@]23CCCC[C@H]2[C@H]1Cc1ccc(O)cc13`, the max response (CRL-7250) was inactive: 1.58%.

With `CCC(OC(C)=O)C(CC(C)NC)(c1ccccc1)c1ccccc1` (configuration not stated) the Potency (CRL-7250) was active: 43.7 µM and the Potency (HEK293) was active: 31 µM.

For `CC(=O)OC[C@]12C[C@H](OC(=O)CC(C)C)C(C)=C[C@H]1O[C@@H]1[C@H](O)[C@@H](O)[C@@]2(C)[C@]12CO2`, the Potency (CRL-7250) was active: 0.142 µM and the Potency (HEK293) was active: 0.0252 µM.

In the case of `CC1=C[C@H]2O[C@@H]3[C@H](O)[C@@H](O)[C@](C)([C@@]2(CO)C[C@@H]1O)[C@]31CO1`, the Potency (CRL-7250) is reported as active: 5.8 µM.

For `C[C@]12CC[C@@H](O[C@@H]3O[C@H](CO)[C@@H](O)[C@H](O)[C@H]3O)C[C@@]1(O)CCC1C2CC[C@]2(C)[C@@H](C3=CC(=O)OC3)CC[C@]12O` (some centres not stated), the Potency (CRL-7250) was active: 0.126 µM.

In the case of `COc1cccc(NCC(F)Cn2c3ccc(Br)cc3c3cc(Br)ccc32)c1` (configuration not stated), the Potency (CRL-7250) is reported as inconclusive: 10.3 µM [inhibitor, partial curve].

For `CC(=Cc1csc(C)n1)[C@@H]1C[C@H]2O[C@@H]2CCC[C@H](C)[C@@H](O)[C@@H](C)C(=O)C(C)(C)[C@@H](O)CC(=O)O1`, the Potency (CRL-7250) was inconclusive: 0.0012 µM [inhibitor, full curve] and the max response (HEK293) was inactive: -79%.

In the case of `CCC(=O)C(CCN(C)C)(c1ccccc1)c1ccccc1`, the max response (CRL-7250) is reported as inactive: -11.9%.

For `COC(=O)[C@@H](N)CCCN/C(N)=N/[N+](=O)[O-]`, the outcome (CRL-7250) was “inactive”.

With `COc1cc2c(c(OC)c1OC)-c1ccc(SC)c(=O)cc1[C@@H](NC(C)=O)CC2` the Potency (CRL-7250) was active: 0.0092 µM and the Potency (HEK293) was active: 0.0082 µM.

In the case of `CCOC(=O)c1ccnc2cc(C(OCCN3CCCCC3)c3ccccc3Cl)sc12` (configuration not stated), the Potency (CRL-7250) is reported as inconclusive: 29.1 µM [inhibitor, single point].

In the case of `CC(CCc1ccc(O)cc1)O[C@@H]1O[C@H](CO[C@H]2OC[C@](O)(CO)[C@H]2O)[C@@H](O)[C@H](O)[C@H]1O` (some centres not stated), the outcome (CRL-7250) is reported as “inactive”.

With `O=C(N[C@H]1CN2CCC1CC2)c1cc2cccc(Cl)c2s1` the max response (CRL-7250) was inactive: -12.3% and the Potency (HEK293) was inconclusive: 29.1 µM [inhibitor, single point].

With `C=CC(C)(C)C12C=C(O)C(=O)N3/C(=C\c4cnc[nH]4)C(=O)NC31N(OC)c1ccccc12` (configuration not stated) the Potency (CRL-7250) was inconclusive: 7.96 µM [inhibitor, single point] and the Potency (HEK293) was inconclusive: 14.2 µM [inhibitor, single point].

With `CC(C)c1c(CN(C)C(C)Cc2ccccc2)n(C)n(-c2ccccc2)c1=O` (configuration not stated) the Potency (CRL-7250) was inconclusive: 18.8 µM [inhibitor, partial curve].

With `CC1=CC(=O)[C@@H](O)[C@]2(C)C3[C@@H](O)[C@@H]4OC(=O)[C@@H]([C@H]4C)[C@]3(C)C(=O)[C@H](O)[C@@H]12` (some centres not stated) the Potency (CRL-7250) was inconclusive: 20.2 µM [inhibitor, single point].

With `CCCCCn1cc(C(=O)Cc2ccccc2OC)c2ccccc21` the Potency (CRL-7250) was inconclusive: 16.4 µM [inhibitor, single point] and the Potency (HEK293) was inconclusive: 20.6 µM [inhibitor, single point].

For `CC(CC(C#N)(c1ccccc1)c1ccccc1)N(C)C` (configuration not stated), the max response (CRL-7250) was inconclusive: -34.8% [inhibitor] and the Potency (HEK293) was active: 24.3 µM.

In the case of `COc1ccc(CC2C(=O)NC(C)C(=O)N(C)C3Cc4ccc(cc4)Oc4cc(ccc4OC4OC(CO)C(O)C(O)C4O)CC(C(=O)NC(C)C(=O)NC(CCC(=O)O)C(=O)N2C)N(C)C3=O)cc1` (configuration not stated), the Potency (CRL-7250) is reported as inconclusive: 4.91 µM [inhibitor, single point] and the Potency (HEK293) is reported as inconclusive: 3.48 µM [inhibitor, partial curve].

In the case of `CN1CCC2=C(C1)c1ccccc1Cc1ccccc12`, the outcome (CRL-7250) is reported as “inactive” and the Potency (HEK293) is reported as inconclusive: 23.1 µM [inhibitor, single point].

With `CCC1(O)CCC2C3CCC4=CC(=O)CCC4C3CCC21CC` (configuration not stated) the Potency (CRL-7250) was inconclusive: 23.1 µM [inhibitor, single point] and the Potency (HEK293) was inconclusive: 29.1 µM [inhibitor, single point].

For `CC(=O)O[C@H]1C(=O)[C@]2(C)C(O)C[C@H]3OC[C@@]3(OC(C)=O)[C@H]2[C@H](OC(=O)c2ccccc2)[C@]2(O)C[C@H](O)C(C)=C1C2(C)C` (some centres not stated), the Potency (CRL-7250) was inconclusive: 1.09 µM [inhibitor, partial curve] and the Potency (HEK293) was inconclusive: 9.68 µM [inhibitor, single point].

In the case of `CCCCCCCCCC(CC)c1ccc(S(=O)(=O)O)cc1` (configuration not stated), the max response (CRL-7250) is reported as inactive: -1.12% and the Potency (HEK293) is reported as inconclusive: 61.1 µM [inhibitor, partial curve, poor fit].

With `C[C@]12CC[C@H]3[C@@H](CCC4=CC(=O)CC[C@@H]43)[C@@H]1CC[C@@H]2OC(=O)CCc1ccco1` the max response (CRL-7250) was inactive: -3% and the Potency (HEK293) was inconclusive: 33.5 µM [inhibitor, single point].

In the case of `C[C@H]1CC[C@@H]2[C@@H](C)[C@H]3[C@H](C[C@H]4[C@@H]5CC=C6CC(O[C@@H]7O[C@H](CO)[C@@H](O)[C@H](O[C@@H]8O[C@H](CO)[C@@H](O)[C@H](O)[C@H]8O)[C@@H]7O[C@@H]7O[C@@H](C)[C@H](O)[C@@H](O)[C@H]7O)CC[C@]6(C)[C@H]5CC[C@]34C)N2C1` (some centres not stated), the max response (CRL-7250) is reported as inactive: -16.5% and the Potency (HEK293) is reported as inconclusive: 6.93 µM [inhibitor, single point].

With `CCCCn1cc(C(=O)c2cccc3ccccc23)c2ccccc21` the Potency (CRL-7250) was inconclusive: 25.9 µM [inhibitor, single point] and the Potency (HEK293) was inconclusive: 20.6 µM [inhibitor, single point].

For `CC(=O)[O][Hg][c]1ccccc1`, the Potency (CRL-7250) was active: 4.22 µM and the Potency (HEK293) was active: 0.376 µM.

For `C/C=C(\C)C(=O)OC1CC2C(CC=C3CC(OC4CC(OC)C(OC5CC(OC)C(OC6CC(OC)C(OC7CC(OC)C(O)C(C)O7)C(C)O6)C(C)O5)C(C)O4)CCC32C)C2(O)CCC(C(C)=O)C12C` (configuration not stated), the max response (CRL-7250) was inactive: -2.08% and the Potency (HEK293) was inconclusive: 3.48 µM [inhibitor, single point].
